Read counts are not given, so values of variants with three or more changes are uncertain.
B1: LINE1-full (parent)
chain: UACGUAGGUGGUUUUCCCCUGAUAGUGCUAAGGGGGCCUGGAAGUUUGGACUGGGCAGAGCUCAACACAGCGUGGCAAAGUGGCUGUGGCUAGACUGCCUCUCUGGAUUCCUCGUCACUCAGCAGGGCAUCUCUGAGAGAAAUGCC

Variants of: B1
Assay: self-cleavage, relative activity (ratio to wild type); higher = more cleavage; in vitro, sequencing; the parent is a self-cleaving ribozyme

| Variant | self-cleavage |
| --- | --- |
| A43G A64U U108C U134C | 0.79 |
| A57U A77G G125U | 0.06 |
| A31U U73A A92G | 0.22 |
| U14A U52A A57G | 1.55 |
| U12G A67C A140G A141G | 0.27 |
| G44U G53A U115G | 1.71 |
| G7A U20G U87C | 0.47 |
| U13A C128U A140G | 0.39 |
| A57U U102C U134C | 0.07 |
| U20C G44C A92G | 0 |
| C63U U85C U130C U134A | 0.08 |
| A50G A77G U130A U134A | 1.66 |
| C28U G35A U143A | 0.32 |
| U13C U20C U47C | 1.03 |
| U26C U45C G70A | 0.18 |
| U62G A78G U100A | 0.1 |
| A42G A65G U119A | 0.06 |
| A77G A94U U102C A138G A141G | 1.42 |
| G32A U47C U119A | 1.62 |
| A43C A50G C56A | 0.15 |
| U9A A77G A136G | 1.84 |
| U12C U20A U47C G82A U104A | 1.2 |
| U12G U130C A138G | 1.75 |
| G4A U46A A57G A69U A78U U81A A117G | 0.09 |

| Variant | self-cleavage |
| --- | --- |
| U39C U115C A129G | 1.41 |
| U87A U100A A121G | 0.02 |
| C68A U109C A140G | 0.05 |
| U73C U81G U85C U87A A117U | 0 |
| A65U G83A U109C | 0.07 |
| U15C A30G U47A | 0.8 |
| U20C A69U A94U A140U | 0.03 |
| U14C G53A A57G U85C | 0.13 |
| U13C U20C C28U U39C G48U U96A | 0.06 |
| C38A U45C G126A | 1.43 |
| U1C U9A U14A A64C | 0.29 |
| U26C G33U A142G | 1.1 |
| U73A U87C U100C | 0.72 |
| U1C A2G U52G | 0.82 |
| U14C U39G A77U U115A U130C A141C | 1.38 |
| U15C U46C U130C | 1.12 |
| U15A A22G U47C C95U G135A | 0.58 |
| A50G U52A U85A U104C U119C | 0 |
| U39C U132A G135U | 1.66 |
| U20C U39A A77G C98U U115A A138G A141G | 0.36 |
| C51U U100C A124G | 1.6 |
| U14A U29A U52C A69U A77G G105U | 0.19 |
| U73A U85A U108C | 0.07 |
| G34A U46A U91A A138G | 0.39 |

| Variant | self-cleavage |
| --- | --- |
| U15C U108C G125A | 2.12 |
| G36U C66U A117G | 0.12 |
| U12C C98U U108C | 0.85 |
| U15A G58A U134C A136U | 0.08 |
| U20A G58U U115A | 0.06 |
| U15C G34A U39C G54U | 1.19 |
| U12A A78U U85C C103A U112C A138G | 0 |
| U1A U100C C145U | 1.69 |
| A24U A59G A129U A142G | 0.04 |
| U20C G83A U109C A117U A140G A142U | 0.25 |
| U12A U14C G49U U119C | 0.64 |
| A22G A69G U100A | 0.13 |
| A42G A77G U109C U115A | 1.6 |
| U20C A42U C63U U87C | 0.14 |
| A30U A136G A138G U143C | 1.97 |
| A57G U96A A107G A124U | 0 |
| U5A U13C A78G | 0.55 |
| U12C G74U A141G | 1.67 |
| U20A A42G U81G | 1.73 |
| A6G U46C A65G | 0.25 |
| U73C A77G U96C | 0 |
| U108C A121G U143C | 2.36 |
| U5C U20C A129U | 0.89 |
| A64U U85G U132C | 0.15 |

| Variant | self-cleavage |
| --- | --- |
| C28U A65G U130C A142G | 0.06 |
| U14A A50G U81A U109C A138G | 0.37 |
| A31G U73C A142G | 1.45 |
| U26C A50U A141G | 0.41 |
| C28G C38U C71A U100C A107G U112C A136G | 0.76 |
| U52C C103A U134C | 1.52 |
| U39C U81C U102A | 0.99 |
| G55A U115A A142G | 0.22 |
| U26C G35U A42G | 0.91 |
| G53A U62C A117U A138G | 0.01 |
| A64G U73C A129U | 0.5 |
| U45C U81C U87A | 0.12 |
| A59G G60U U73A | 0.03 |
| U14C U20A U115C | 3 |
| U14C U26C A31C C84U A121U A124U A136G | 0 |
| G83A A121U A124G | 0.99 |
| A2G U46C U132C | 0 |
| A24G C38A U47C A124U | 0.21 |
| U62C U73A G125A | 0.03 |
| U9A A69U U73C | 0.06 |
| U13C A24G U46G U85C U132C | 0 |
| U13C A107G C113G A129G | 0.48 |
| U85A U96C A141G | 0.3 |
| A22G A31U A78U A79G U85C | 0.37 |

| Variant | self-cleavage |
| --- | --- |
| U15A A59G A79G A138G | 0.36 |
| C68U A78C A92C A117G | 0.24 |
| A42G U47C A141U | 1.09 |
| U5A U20C U96C C131U A140U U143A | 0.62 |
| A65G U109A G127A | 0.05 |
| U15A A22G U29A G125U G126A | 0.53 |
| U13C U23C A129G A142G | 1.69 |
| G4A U26A A65G U91A U96C A142G | 0.4 |
| U29C A79G A136G | 1.06 |
| U13C U52A U87C A142G | 0.57 |
| U9C G41A A117U | 1.36 |
| U14A A92G A117G | 0 |
| A22U A43G U62C A67G | 0 |
| A31U U52C A94G | 0.63 |
| U39C A78G U87A | 0.04 |
| U12C U20A U45C | 1.53 |
| G40A A57U A121C | 0.05 |
| U1C C63A A79G | 0.06 |
| U20A U52A U100C U119A U143A | 1.91 |
| U12C A22G U45C U115C | 0 |
| U46C A67G U81A | 0.74 |
| C19U U96A A142C | 0.07 |
| U26A A59G U102C | 0.25 |
| A6U U45A C84G U96A A140G | 0.22 |

| Variant | self-cleavage |
| --- | --- |
| G7C A94G A107U U115C A136G | 1.31 |
| U26C U81A U87C U91G | 0 |
| A50U U102A U134C | 1.24 |
| G36A A42U A77U U85A U87C U96A | 0.03 |
| U39C A57U U87A A124G | 0.06 |
| U26C A43G A67G A140G | 0 |
| U14C A24G C63U A140G A141G | 0.51 |
| G27U U102A U134C A136G | 1 |
| A65U A69G A77G | 0.04 |
| A69U U85C A124G U132C | 0.1 |
| U14A U20C C37G A107G U112C | 2.11 |
| U52A A69G U73C U134C | 1.53 |
| U13C C38A C71U | 1 |
| U14C U45C A64G G105A | 0.35 |
| G27A A50G U62A A79U | 0 |
| A124G U132C A136G | 1.26 |
| A92G G93U A124U | 0.02 |
| U9A U20A U108C U130A | 1.81 |
| A77G A129U U143A | 1.95 |
| U87C A107G U130C A141G | 0.34 |
| A79G G88A A142G | 0.06 |
| U47A U109C A138U | 1.26 |
| A24U U45C U46C G74A U130C | 2.2 |
| G4A U47A U62C | 0.08 |

| Variant | self-cleavage |
| --- | --- |
| U52C A64U A77G U100C A124G | 1.41 |
| U15C U52A A77G | 2.43 |
| U14C U20C U26C A78G | 0.24 |
| G32A U73A U119A | 1.47 |
| A57G U73A A77U A129G | 0.97 |
| U100C A124U A138G | 1.8 |
| A22G A65G A107G | 0 |
| G35U G54U C61U A107G | 0.01 |
| U52A A65G A136G | 0.04 |
| C3U U5C A141G | 0.63 |
| G35A A42G A117C | 1.77 |
| C17U U45C U47C | 1.02 |
| U15C A30G C90U | 0.31 |
| U20G C90U U112A | 0.17 |
| U20A C71U A117G | 1.16 |
| U9C A43G U132C | 0.66 |
| U5C A94G C98A U112C | 0.19 |
| U15C G35U A140U | 0.76 |
| U13C A43G A59G U96C G97A U115C | 0.25 |
| A43G A92G U143C | 0 |
| A42U U85A U96A | 0.05 |
| G35A G127A A142G | 0.92 |
| G7A A30G C37U | 1.2 |

Reference: the RNAGym collection of RNA variant scans (doi:10.7554/elife.90254)
